# In all, about 370,000 compounds went through this assay and about 1,100 (0.3%) were called active. Inconclusive results, whose numbers are uncertain, are shown with a selection of clear calls. The call rests on the fitted dose curve; in most records, active means well fitted activation curve with a large enough effect; inconclusive means small, poorly fitted or top-dose-only effect; inactive means flat fitted curve, though single readings scatter. A potency beside an inconclusive call is a rough fit, not a confirmed value.
# Target: Relaxin receptor 1 (Homo sapiens) (UniProt Q9HBX9)
# Experiment: qHTS Assay for Agonists of the Relaxin Receptor RXFP1; further: nearly all actives have a fitted effect of over 60% in size
# Conditions: HEK293T-RXFP1 cAMP TR-FRET, 30 min; series mostly up to 57.5 µM
# Summary of the method: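 HEK293T cells stably expressing RXFP1 were pretreated with the PDE4 inhibitor Ro 20174, exposed to compounds for 30 min at 37C, lysed, and cAMP was read by TR-FRET. Data normalized to buffer (basal) and 29 nM porcine relaxin (100%).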
# Potency means the concentration at half of the fitted maximal effect; tags describe the fitted curve by direction and shape.
# Sequence of UniProt Q9HBX9 (Q9HBX9 whole entry, looked up): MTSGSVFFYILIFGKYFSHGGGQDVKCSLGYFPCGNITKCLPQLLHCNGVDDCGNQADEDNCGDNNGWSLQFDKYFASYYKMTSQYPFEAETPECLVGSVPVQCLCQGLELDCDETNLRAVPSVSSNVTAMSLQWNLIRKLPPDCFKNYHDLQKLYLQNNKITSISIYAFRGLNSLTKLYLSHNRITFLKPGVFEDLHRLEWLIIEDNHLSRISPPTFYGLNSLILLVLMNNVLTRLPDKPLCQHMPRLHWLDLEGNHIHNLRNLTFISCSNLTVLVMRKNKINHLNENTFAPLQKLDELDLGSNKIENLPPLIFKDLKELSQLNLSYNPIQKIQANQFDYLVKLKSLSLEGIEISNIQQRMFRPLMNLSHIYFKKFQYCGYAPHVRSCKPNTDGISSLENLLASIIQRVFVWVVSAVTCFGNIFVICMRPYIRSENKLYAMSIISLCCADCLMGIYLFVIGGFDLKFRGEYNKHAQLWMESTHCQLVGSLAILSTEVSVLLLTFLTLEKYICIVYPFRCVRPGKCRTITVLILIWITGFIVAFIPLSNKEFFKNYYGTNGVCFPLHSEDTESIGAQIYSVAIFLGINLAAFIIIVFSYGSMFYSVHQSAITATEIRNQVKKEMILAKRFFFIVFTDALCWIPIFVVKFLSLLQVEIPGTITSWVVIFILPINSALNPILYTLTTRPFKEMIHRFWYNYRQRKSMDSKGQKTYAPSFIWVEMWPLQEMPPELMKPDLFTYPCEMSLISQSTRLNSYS
row,SMILES,Potency
1,COc1ccc(N2CCN(C(=O)c3sc4nc5n(c(=O)c4c3C)CCC5)CC2)cc1,"inconclusive: 31.6 µM [activator, partial curve]"
2,O=C1c2nc3ccccn3c2C(=O)N1Cc1ccccc1,"inconclusive: 35.5 µM [activator, single point]"
3,COc1cc(C)ccc1OCCSc1nc2ccc(NC(=O)c3ccc(C)cc3)cc2s1,"inconclusive: 39.8 µM [activator, single point]"
4,Cc1nc(OCc2ccccc2)c2sc3nc4c(cc3c2n1)COC(C)(C)C4,inactive
5,O=C(NCc1ccc(Cl)cc1)c1cc2c(nc3sccn32)s1,"inconclusive: 28.2 µM [activator, single point]"
6,N=c1c2c(-c3ccccc3)c(-c3ccccc3)n(Cc3ccco3)c2ncn1CCCN1CCOCC1,inactive
7,O=C(NCc1ccccc1)c1ccc(Cn2c(=O)c3cccn3c3cccnc32)cc1,"inconclusive: 39.8 µM [activator, single point]"
8,COc1ccc(Oc2nccc(-c3ccccc3)c2C#N)cc1,inactive
9,CCN(CC)CCNC(=O)c1ccc2c(=O)n3nc(Nc4cccc(Cl)c4C)sc3nc2c1,"inconclusive: 22.4 µM [activator, partial curve]"
10,Cc1ccc(S(=O)(=O)c2nnn3c2nc(NCc2ccc(F)cc2)c2sccc23)cc1C,"inconclusive: 28.2 µM [activator, single point]"
11,Cc1ccc(CCNC(=O)c2ccc(Cn3c(=O)c4cccn4c4cccnc43)cc2)cc1,"inconclusive: 39.8 µM [activator, single point]"
12,Cc1c2ccccc2cc[n+]1CCCS(=O)(=O)[O-],"inconclusive: 15.8 µM [activator, partial curve]"
13,Cc1ccc2nc(COc3cccc(NC(=O)c4cccc(Cl)c4)c3)cc(=O)n2c1,"inconclusive: 39.8 µM [activator, single point]"
14,CC(C)CC(C(=O)O)C(C)CC(=O)Nc1ccn(-c2ccccc2)n1 (stereo unspecified),inactive
15,C=CCSC(=C(C#N)C#N)c1cc2c([nH]1)CCCC2,inactive
16,CCOC(=O)C1CCCN(C(=O)CCS(=O)(=O)c2cc3c(cc2Cl)NC(=O)CO3)C1 (stereo unspecified),"inconclusive: 25.1 µM [activator, single point]"
17,COc1cc(OC)cc(-c2nnc(SCC(=O)N3CCCc4ccccc43)o2)c1,inactive
18,Cc1cccc(/C=N/N2CCN(c3ccccc3)CC2)c1,inactive
19,Cc1cc(C)n2nc(C(=O)Nc3ccc4c(c3)OCCO4)nc2n1,active: 14.1 µM
20,COc1ccccc1OCC(=O)Nc1ccc(S(=O)(=O)Nc2onc(C)c2C)cc1,"inconclusive: 22.4 µM [activator, partial curve]"
21,O=C(N/N=C1\C/C(=N\NC(=O)c2ccncc2)c2ccccc21)c1ccncc1,active: 31.6 µM
22,Cc1sc2ncnc(NCCCN3CCCC3=O)c2c1C,"inconclusive: 25.1 µM [activator, partial curve]"

row,SMILES,Potency
1,CCCNC(=O)c1c(O)c2cccc3c2n(c1=O)CCC3,"inconclusive: 25.1 µM [activator, partial curve]"
2,CCc1cc2cc(C(=O)Nc3ccc(F)cc3)sc2s1,"inconclusive: 35.5 µM [activator, single point]"
3,CCN(CC)S(=O)(=O)c1ccc(N2CCCCC2)c(NC(=O)c2ccncc2)c1,"inconclusive: 25.1 µM [activator, partial curve]"
4,COc1ccc(C)cc1-n1nnnc1SCC(=O)NC(=O)NCc1ccco1,inactive
5,Cc1cc(Nc2cccc(Cl)c2)nc2ccc(NC(=O)COc3ccc(Cl)cc3)cc12,"inconclusive: 35.5 µM [activator, partial curve]"
6,CC(C)c1ccc(NC(=O)c2cc3c(=O)[nH]c4ccccc4c3n2C)cc1,"inconclusive: 28.2 µM [activator, partial curve]"
7,CCC(=O)Nc1c(-c2ccccc2Cl)c(=O)c2ccccc2n1CC,inactive
8,Cc1ccccc1CSc1ccc2nnc(-c3ccccn3)n2n1,"inconclusive: 39.8 µM [activator, single point]"
9,COc1ccc(CCNC(=O)CCCn2nc(C)n3ccnc3c2=O)cc1OC,"inconclusive: 28.2 µM [activator, partial curve]"
10,Cc1nc(-c2ccc(C(=O)Nc3ccc(F)cc3)cc2)cs1,"inconclusive: 39.8 µM [activator, single point]"
11,COc1ccc(CCNC(=O)c2ccc(Cn3c(SCc4ccccc4)nc4cccnc43)cc2)cc1,"inconclusive: 25.1 µM [activator, partial curve]"
12,COc1ccc(Oc2cnc3ccccc3n2)cc1,"inconclusive: 39.8 µM [activator, single point]"
13,CN(C)c1ccc2nc3c(=O)[nH]c(=O)nc-3n(CC(O)C(O)C(O)CO)c2c1 (stereo unspecified),"inconclusive: 39.8 µM [activator, single point]"
14,COc1cc2c(cc1OC)C(C(=O)Nc1ccc(F)c(Cl)c1)CC(=O)N2 (stereo unspecified),inactive
15,COc1cc(NC(=O)c2ccc(Cl)cc2Cl)ccc1-c1cc2ccccc2oc1=O,"inconclusive: 28.2 µM [activator, partial curve]"
16,S=c1nc(-c2cc(Cl)cc(Cl)c2)[nH][nH]1,"inconclusive: 15.8 µM [activator, partial curve]"
17,O=C(NNc1nc(=O)c2cccnc2s1)c1ccccc1O,active: 15.8 µM
18,COc1cccc(C2C(C(=O)c3cc4ccccc4o3)=C(O)C(=O)N2c2cc(C)on2)c1OC (stereo unspecified),"inconclusive: 15.8 µM [activator, partial curve]"
19,Cc1cccc(NC(=O)CSC2=Nc3ccccc3C3=NC(CCC(=O)NCc4ccc(F)cc4)C(=O)N23)c1 (stereo unspecified),"inconclusive: 35.5 µM [activator, single point]"
20,O=C(NCCc1ccc(Cl)cc1)c1ccc(Cn2c(=O)[nH]c3ccccc3c2=O)cc1,"inconclusive: 28.2 µM [activator, single point]"
21,CC(=O)c1cccc(Nc2ncnc3c2cnn3C)c1,inactive
22,CC(/C=C1\SC(=S)N(CCC(=O)Nc2nc(C)cs2)C1=O)=C\c1ccccc1,inactive

row,SMILES,Potency
1,Cc1ccccc1OCc1cc(=O)n2c(-c3ccccc3)csc2n1,"inconclusive: 28.2 µM [activator, single point]"
2,CCc1nnc(NC(=O)CCn2cnc3ccccc3c2=O)s1,"inconclusive: 22.4 µM [activator, partial curve]"
3,CCOC(=O)c1c(NC(=O)c2cc(-c3ccc(Cl)cc3)on2)sc2c1CCCC2,"inconclusive: 31.6 µM [activator, single point]"
4,CC(=O)OCCNC(=O)Cn1cnc2c1c(=O)n(C)c(=O)n2C,"inconclusive: 20 µM [activator, partial curve]"
5,CCOC(=O)c1cnc2c(Cl)c(Cl)ccc2c1NCCN1CCOCC1,"inconclusive: 35.5 µM [activator, partial curve]"
6,CN(C)S(=O)(=O)c1ccc(C(=O)OCC(=O)c2csc(N3CCCCC3)n2)cc1,"inconclusive: 31.6 µM [activator, single point]"
7,CCOC(=O)c1c(C)oc2c1c(C=NCc1ccccn1)c(O)c1ccccc12,inactive
8,O=C(Nc1ccc(Br)c2ccccc12)c1ccc2ccccc2c1O,"inconclusive: 25.1 µM [activator, partial curve]"
9,Cc1cccc(C)c1NC(=O)CSc1ncc2c(n1)-c1ccc(Cl)cc1N(Cc1ccccc1)S2(=O)=O,active: 10 µM
10,CCc1ccc(CNC(=O)CSc2c3c(nc4ccc(Cl)cc24)CCCC3)cc1,"inconclusive: 31.6 µM [activator, single point]"
11,COc1ccc(NC(=O)c2sc3nc(-c4cc5ccc(OC)cc5oc4=O)[nH]c(=O)c3c2C)cc1,"inconclusive: 25.1 µM [activator, partial curve]"
12,O=C1C(=O)N(CCCN2CCOCC2)C(c2ccc(F)cc2)/C1=C(\O)c1ccc2c(c1)OCCO2 (stereo unspecified),"inconclusive: 28.2 µM [activator, partial curve]"
13,CCCN1CCN(C(=O)c2cc3c(s2)-c2ccccc2OC3)CC1,active: 17.8 µM
14,CN(C)C(=O)c1ccc(NC(=O)c2sccc2-c2ccccc2)cc1,"inconclusive: 22.4 µM [activator, partial curve]"
15,CCOc1ccc(OCC)c(NC(=O)c2[nH]c(C)c(C(C)=O)c2C)c1,"inconclusive: 28.2 µM [activator, single point]"
16,Cc1ccc(OCC(=O)NNC(=O)CSc2ncnc3sc(C)c(C)c23)cc1,"inconclusive: 28.2 µM [activator, single point]"
17,COc1ccc(C)cc1NC(=O)c1ccc2c(=O)n3c(nc2c1)CCCCC3,"inconclusive: 39.8 µM [activator, single point]"
18,CCc1ccccc1Nc1nn2c(=O)c3ccc(C(=O)NCc4cccs4)cc3nc2s1,"inconclusive: 39.8 µM [activator, single point]"
19,CCc1ccc(S(=O)(=O)c2nnn3c2nc(NCc2cccs2)c2sccc23)cc1,"inconclusive: 39.8 µM [activator, single point]"
20,CSc1nc(N2CCN(c3ccccc3)CC2)cc(N2CCN(c3ccccc3)CC2)n1,"inconclusive: 39.8 µM [activator, single point]"
21,CCN(C(=O)CSC1=Nc2ccccc2C2CC=NN12)C1CCS(=O)(=O)C1 (stereo unspecified),"inconclusive: 25.1 µM [activator, partial curve]"
22,N#Cc1cc(C#N)c(SCC(=O)N2CC(=O)Nc3ccccc32)nc1N,"inconclusive: 39.8 µM [activator, single point]"

# Source: PubChem BioAssay AID2676 (National Center for Advancing Translational Sciences (NCATS), 2010)
